Data taken from paper PMC9911399, “Two distinct binding modes provide the RNA-binding protein RbFox with extraordinary sequence specificity”.
Residue numbers refer to the chain shown, from its start. The list shows a part of the results.

T1: RBFOX1 RRM RbFoxmut (Fox-RRM*) (Homo sapiens, UniProt Q9NWB1 109-208, R118D;E147R;N151S;E152T)
T1 sequence: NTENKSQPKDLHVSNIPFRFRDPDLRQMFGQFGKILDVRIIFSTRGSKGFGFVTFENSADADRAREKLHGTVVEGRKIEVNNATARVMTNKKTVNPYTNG

B1: GAUGCUU (DNA:RNA)
RNA: GGGAGACCGGAAUUCAGAUUGUCCGAUGCUUUUAAAUCCCGUCGUAGCCACCA
DNA 1: CAATCTGAATTCCGGTCTCCC
DNA 2: TGGTGGCTACGACGGGATT
B2: ACCUGGC (DNA:RNA)
RNA: GGGAGACCGGAAUUCAGAUUGUCCACCUGGCUUAAAUCCCGUCGUAGCCACCA
DNA 1: CAATCTGAATTCCGGTCTCCC
DNA 2: TGGTGGCTACGACGGGATT
B3: GUACGAC (DNA:RNA)
RNA: B2 RNA with A25G, C26U, C27A, U28C, G30A
DNA 1: CAATCTGAATTCCGGTCTCCC
DNA 2: TGGTGGCTACGACGGGATT
B4: CUUGGCG (DNA:RNA)
RNA: B1 RNA with G25C, A26U, C29G, U30C, U31G
DNA 1: CAATCTGAATTCCGGTCTCCC
DNA 2: TGGTGGCTACGACGGGATT
B5: GAACAUC (DNA:RNA)
RNA: B1 RNA with U27A, G28C, C29A, U31C
DNA 1: CAATCTGAATTCCGGTCTCCC
DNA 2: TGGTGGCTACGACGGGATT
B6: ACGUUGU (DNA:RNA)
RNA: B2 RNA with C27G, G29U, C31U
DNA 1: CAATCTGAATTCCGGTCTCCC
DNA 2: TGGTGGCTACGACGGGATT
B7: UAAGAAU (DNA:RNA)
RNA: B1 RNA with G25U, U27A, C29A, U30A
DNA 1: CAATCTGAATTCCGGTCTCCC
DNA 2: TGGTGGCTACGACGGGATT
B8: GACGCAG (DNA:RNA)
RNA: B1 RNA with U27C, U30A, U31G
DNA 1: CAATCTGAATTCCGGTCTCCC
DNA 2: TGGTGGCTACGACGGGATT
B9: AUUCCAU (DNA:RNA)
RNA: B1 RNA with G25A, A26U, G28C, U30A
DNA 1: CAATCTGAATTCCGGTCTCCC
DNA 2: TGGTGGCTACGACGGGATT
B10: AGUAGAC (DNA:RNA)
RNA: B2 RNA with C26G, C27U, U28A, G30A
DNA 1: CAATCTGAATTCCGGTCTCCC
DNA 2: TGGTGGCTACGACGGGATT
B11: AUCGAUC (DNA:RNA)
RNA: B2 RNA with C26U, U28G, G29A, G30U
DNA 1: CAATCTGAATTCCGGTCTCCC
DNA 2: TGGTGGCTACGACGGGATT
B12: CCGACAC (DNA:RNA)
RNA: B2 RNA with A25C, C27G, U28A, G29C, G30A
DNA 1: CAATCTGAATTCCGGTCTCCC
DNA 2: TGGTGGCTACGACGGGATT
B13: ACGAGCA (DNA:RNA)
RNA: B2 RNA with C27G, U28A, G30C, C31A
DNA 1: CAATCTGAATTCCGGTCTCCC
DNA 2: TGGTGGCTACGACGGGATT
B14: GAACAUG (DNA:RNA)
RNA: B1 RNA with U27A, G28C, C29A, U31G
DNA 1: CAATCTGAATTCCGGTCTCCC
DNA 2: TGGTGGCTACGACGGGATT
B15: GGAGCUA (DNA:RNA)
RNA: B1 RNA with A26G, U27A, U31A
DNA 1: CAATCTGAATTCCGGTCTCCC
DNA 2: TGGTGGCTACGACGGGATT
B16: CCUUGCG (DNA:RNA)
RNA: B2 RNA with A25C, C27U, G30C, C31G
DNA 1: CAATCTGAATTCCGGTCTCCC
DNA 2: TGGTGGCTACGACGGGATT
B17: CAGUUCG (DNA:RNA)
RNA: B2 RNA with A25C, C26A, C27G, G29U, G30C, C31G
DNA 1: CAATCTGAATTCCGGTCTCCC
DNA 2: TGGTGGCTACGACGGGATT
B18: AAAACGU (DNA:RNA)
RNA: B1 RNA with G25A, U27A, G28A, U30G
DNA 1: CAATCTGAATTCCGGTCTCCC
DNA 2: TGGTGGCTACGACGGGATT
B19: UAGAAGG (DNA:RNA)
RNA: B2 RNA with A25U, C26A, C27G, U28A, G29A, C31G
DNA 1: CAATCTGAATTCCGGTCTCCC
DNA 2: TGGTGGCTACGACGGGATT
B20: ACAAGGG (DNA:RNA)
RNA: B2 RNA with C27A, U28A, C31G
DNA 1: CAATCTGAATTCCGGTCTCCC
DNA 2: TGGTGGCTACGACGGGATT

Molecular target: T1, RBFOX1 RRM RbFoxmut (Fox-RRM*)
Experiment: EMSA; HiTS-Eq, 1 nM pool, 10 min; buffer printed only for the single-RNA assays: 10 mM Tris pH 7.5, 150 mM NaCl, 3.4 mM EDTA, 0.001% NP-40, 30 C
Conditions: tags: His6 N-terminal (pET28a); label: 5' 32P
Method in brief: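 Purified RbFox RRM (wild type or mutant) was equilibrated for 10 min in 50 µL with 1 nM of a 5′-radiolabelled pool of RNA with 7 randomized nucleotides, its flanks annealed to DNA oligonucleotides, across increasing protein concentrations. Free RNA was separated by 8% native PAGE, excised, reverse-transcribed, PCR-barcoded and sequenced on an Illumina HiSeq 2500. Relative association constants came from read-count changes of each variant against the control reaction, normalised to the cognate motif.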

| Binder | binding signal |
| --- | --- |
| B1 | 0.0831 KA relative to UGCAUGU |
| B2 | 0.125 KA relative to UGCAUGU |
| B3 | 0.0842 KA relative to UGCAUGU |
| B4 | 0.136 KA relative to UGCAUGU |
| B5 | 0.0551 KA relative to UGCAUGU |
| B6 | 0.154 KA relative to UGCAUGU |
| B7 | 0.0808 KA relative to UGCAUGU |
| B8 | 0.0954 KA relative to UGCAUGU |
| B9 | 0.097 KA relative to UGCAUGU |
| B10 | 0.0769 KA relative to UGCAUGU |
| B11 | 0.0676 KA relative to UGCAUGU |
| B12 | 0.067 KA relative to UGCAUGU |
| B13 | 0.156 KA relative to UGCAUGU |
| B14 | 0.0953 KA relative to UGCAUGU |
| B15 | 0.0975 KA relative to UGCAUGU |
| B16 | 0.124 KA relative to UGCAUGU |
| B17 | 0.158 KA relative to UGCAUGU |
| B18 | 0.0727 KA relative to UGCAUGU |
| B19 | 0.0839 KA relative to UGCAUGU |
| B20 | 0.0692 KA relative to UGCAUGU |
